Test results published in paper PMC9911399, “Two distinct binding modes provide the RNA-binding protein RbFox with extraordinary sequence specificity”.
Changes are numbered by the printed parent chain; changes in the protein carry UniProt numbers. The list shows a part of the results.

T1: RBFOX1 RRM RbFoxmut (Fox-RRM*) (Homo sapiens, UniProt Q9NWB1 109-208, R118D;E147R;N151S;E152T)
T1 sequence: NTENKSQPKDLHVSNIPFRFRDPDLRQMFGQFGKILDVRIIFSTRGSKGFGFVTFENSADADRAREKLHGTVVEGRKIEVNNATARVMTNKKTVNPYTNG

B1: CGUGCAU (DNA:RNA)
RNA: GGGAGACCGGAAUUCAGAUUGUCCCGUGCAUUUAAAUCCCGUCGUAGCCACCA
DNA 1: CAATCTGAATTCCGGTCTCCC
DNA 2: TGGTGGCTACGACGGGATT
B2: CCGUCCA (DNA:RNA)
RNA: B1 RNA with G26C, U27G, G28U, A30C, U31A
DNA 1: CAATCTGAATTCCGGTCTCCC
DNA 2: TGGTGGCTACGACGGGATT
B3: ACUCAAG (DNA:RNA)
RNA: B1 RNA with C25A, G26C, G28C, C29A, U31G
DNA 1: CAATCTGAATTCCGGTCTCCC
DNA 2: TGGTGGCTACGACGGGATT
B4: UUAUAGA (DNA:RNA)
RNA: GGGAGACCGGAAUUCAGAUUGUCCUUAUAGAUUAAAUCCCGUCGUAGCCACCA
DNA 1: CAATCTGAATTCCGGTCTCCC
DNA 2: TGGTGGCTACGACGGGATT
B5: GCUUAUG (DNA:RNA)
RNA: B4 RNA with U25G, U26C, A27U, G30U, A31G
DNA 1: CAATCTGAATTCCGGTCTCCC
DNA 2: TGGTGGCTACGACGGGATT
B6: GUACAAG (DNA:RNA)
RNA: B4 RNA with U25G, U28C, G30A, A31G
DNA 1: CAATCTGAATTCCGGTCTCCC
DNA 2: TGGTGGCTACGACGGGATT
B7: UCUUGAG (DNA:RNA)
RNA: B1 RNA with C25U, G26C, G28U, C29G, U31G
DNA 1: CAATCTGAATTCCGGTCTCCC
DNA 2: TGGTGGCTACGACGGGATT
B8: ACUGAGU (DNA:RNA)
RNA: B1 RNA with C25A, G26C, C29A, A30G
DNA 1: CAATCTGAATTCCGGTCTCCC
DNA 2: TGGTGGCTACGACGGGATT
B9: UAACAUA (DNA:RNA)
RNA: B4 RNA with U26A, U28C, G30U
DNA 1: CAATCTGAATTCCGGTCTCCC
DNA 2: TGGTGGCTACGACGGGATT
B10: AAGUUGU (DNA:RNA)
RNA: B4 RNA with U25A, U26A, A27G, A29U, A31U
DNA 1: CAATCTGAATTCCGGTCTCCC
DNA 2: TGGTGGCTACGACGGGATT
B11: CGCGAUC (DNA:RNA)
RNA: B1 RNA with U27C, C29A, A30U, U31C
DNA 1: CAATCTGAATTCCGGTCTCCC
DNA 2: TGGTGGCTACGACGGGATT
B12: CGAAUUA (DNA:RNA)
RNA: B1 RNA with U27A, G28A, C29U, A30U, U31A
DNA 1: CAATCTGAATTCCGGTCTCCC
DNA 2: TGGTGGCTACGACGGGATT
B13: CUAUACG (DNA:RNA)
RNA: B4 RNA with U25C, G30C, A31G
DNA 1: CAATCTGAATTCCGGTCTCCC
DNA 2: TGGTGGCTACGACGGGATT
B14: AGGAAGA (DNA:RNA)
RNA: B4 RNA with U25A, U26G, A27G, U28A
DNA 1: CAATCTGAATTCCGGTCTCCC
DNA 2: TGGTGGCTACGACGGGATT
B15: UAAGCUU (DNA:RNA)
RNA: B1 RNA with C25U, G26A, U27A, A30U
DNA 1: CAATCTGAATTCCGGTCTCCC
DNA 2: TGGTGGCTACGACGGGATT
B16: GACUUGU (DNA:RNA)
RNA: B4 RNA with U25G, U26A, A27C, A29U, A31U
DNA 1: CAATCTGAATTCCGGTCTCCC
DNA 2: TGGTGGCTACGACGGGATT
B17: ACGUGAA (DNA:RNA)
RNA: B4 RNA with U25A, U26C, A27G, A29G, G30A
DNA 1: CAATCTGAATTCCGGTCTCCC
DNA 2: TGGTGGCTACGACGGGATT
B18: UUCGGUC (DNA:RNA)
RNA: B4 RNA with A27C, U28G, A29G, G30U, A31C
DNA 1: CAATCTGAATTCCGGTCTCCC
DNA 2: TGGTGGCTACGACGGGATT
B19: GACGCAC (DNA:RNA)
RNA: B1 RNA with C25G, G26A, U27C, U31C
DNA 1: CAATCTGAATTCCGGTCTCCC
DNA 2: TGGTGGCTACGACGGGATT
B20: CAGGAUC (DNA:RNA)
RNA: B1 RNA with G26A, U27G, C29A, A30U, U31C
DNA 1: CAATCTGAATTCCGGTCTCCC
DNA 2: TGGTGGCTACGACGGGATT
B21: GUUAUCC (DNA:RNA)
RNA: B1 RNA with C25G, G26U, G28A, C29U, A30C, U31C
DNA 1: CAATCTGAATTCCGGTCTCCC
DNA 2: TGGTGGCTACGACGGGATT
B22: CGAGCAA (DNA:RNA)
RNA: B1 RNA with U27A, U31A
DNA 1: CAATCTGAATTCCGGTCTCCC
DNA 2: TGGTGGCTACGACGGGATT
B23: CUUAUGA (DNA:RNA)
RNA: B4 RNA with U25C, A27U, U28A, A29U
DNA 1: CAATCTGAATTCCGGTCTCCC
DNA 2: TGGTGGCTACGACGGGATT
B24: GAAACUA (DNA:RNA)
RNA: B4 RNA with U25G, U26A, U28A, A29C, G30U
DNA 1: CAATCTGAATTCCGGTCTCCC
DNA 2: TGGTGGCTACGACGGGATT
B25: UUCAGUG (DNA:RNA)
RNA: B4 RNA with A27C, U28A, A29G, G30U, A31G
DNA 1: CAATCTGAATTCCGGTCTCCC
DNA 2: TGGTGGCTACGACGGGATT
B26: ACAGCGA (DNA:RNA)
RNA: B4 RNA with U25A, U26C, U28G, A29C
DNA 1: CAATCTGAATTCCGGTCTCCC
DNA 2: TGGTGGCTACGACGGGATT
B27: GACACAA (DNA:RNA)
RNA: B1 RNA with C25G, G26A, U27C, G28A, U31A
DNA 1: CAATCTGAATTCCGGTCTCCC
DNA 2: TGGTGGCTACGACGGGATT
B28: GGGAUAA (DNA:RNA)
RNA: B1 RNA with C25G, U27G, G28A, C29U, U31A
DNA 1: CAATCTGAATTCCGGTCTCCC
DNA 2: TGGTGGCTACGACGGGATT
B29: ACAAAAA (DNA:RNA)
RNA: B4 RNA with U25A, U26C, U28A, G30A
DNA 1: CAATCTGAATTCCGGTCTCCC
DNA 2: TGGTGGCTACGACGGGATT
B30: CUCCGAG (DNA:RNA)
RNA: B1 RNA with G26U, U27C, G28C, C29G, U31G
DNA 1: CAATCTGAATTCCGGTCTCCC
DNA 2: TGGTGGCTACGACGGGATT
B31: GUGAGAG (DNA:RNA)
RNA: B1 RNA with C25G, G26U, U27G, G28A, C29G, U31G
DNA 1: CAATCTGAATTCCGGTCTCCC
DNA 2: TGGTGGCTACGACGGGATT

target: T1, RBFOX1 RRM RbFoxmut (Fox-RRM*); assay: EMSA; HiTS-Eq, 1 nM pool, 10 min; buffer printed only for the single-RNA assays: 10 mM Tris pH 7.5, 150 mM NaCl, 3.4 mM EDTA, 0.001% NP-40, 30 C; conditions: tags: His6 N-terminal (pET28a); label: 5' 32P
Outline: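 These values rest on relative association constants, computed from read-count changes of each RNA species versus the control reaction and normalised to the cognate motif. Reads came from free RNA recovered by 8% native PAGE after purified RbFox RRM (wild type or mutant) at increasing concentrations was equilibrated for 10 min in 50 µL with 1 nM of a 5′-radiolabelled pool with 7 randomized nucleotides and DNA-annealed flanks.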

Binder | binding signal
B1 | 0.102 KA relative to UGCAUGU
B2 | 0.0522 KA relative to UGCAUGU
B3 | 0.124 KA relative to UGCAUGU
B4 | 0.0835 KA relative to UGCAUGU
B5 | 0.142 KA relative to UGCAUGU
B6 | 0.0906 KA relative to UGCAUGU
B7 | 0.125 KA relative to UGCAUGU
B8 | 0.0926 KA relative to UGCAUGU
B9 | 0.0756 KA relative to UGCAUGU
B10 | 0.176 KA relative to UGCAUGU
B11 | 0.0943 KA relative to UGCAUGU
B12 | 0.12 KA relative to UGCAUGU
B13 | 0.117 KA relative to UGCAUGU
B14 | 0.0888 KA relative to UGCAUGU
B15 | 0.0842 KA relative to UGCAUGU
B16 | 0.201 KA relative to UGCAUGU

Binder | binding signal
B17 | 0.113 KA relative to UGCAUGU
B18 | 0.0775 KA relative to UGCAUGU
B19 | 0.103 KA relative to UGCAUGU
B20 | 0.0958 KA relative to UGCAUGU
B21 | 0.0984 KA relative to UGCAUGU
B22 | 0.0729 KA relative to UGCAUGU
B23 | 0.107 KA relative to UGCAUGU
B24 | 0.115 KA relative to UGCAUGU
B25 | 0.131 KA relative to UGCAUGU
B26 | 0.0908 KA relative to UGCAUGU
B27 | 0.0477 KA relative to UGCAUGU
B28 | 0.118 KA relative to UGCAUGU
B29 | 0.0956 KA relative to UGCAUGU
B30 | 0.0995 KA relative to UGCAUGU
B31 | 0.133 KA relative to UGCAUGU
